To fix the notation:
B1: chr12:96943601:96943709:+|CDS|ENSG00000139350|unk|FALSE|unique (ssRNA)
RNA: GGGAGUUCUACAGUCCGACGAUCAACUCAGUGUUUCCUCCAAGAAAAAAUCCAGUAACUUCAAGUACUUCAGUAUUGCAUUCUAGUCCUCUUAAUGUUUUUAUGGGAUCUCCAGGGAAAGAGGAAAAUGAAAACCGUGAUCUACAACAGAGGAUUGAGCAUCA
B2: chr1:108699644:108699745:+|CDS|ENSG00000134186|unk|FALSE|bound_elsewhere (ssRNA)
RNA: GGGAGUUCUACAGUCCGACGAUCGAUUCCAAGAAAGAGAAAAAACACAGUAGAAGCAGAAGCAGAGAAAGGAAACACAGAAGUAGGAGUCGAAGUAGAAAUGCAGGGAAACGAAGUAGAAGUAGAAGCAAAGAGAAAUCAAGUCAACAGAGGAUUGAGCAUCA
B3: ENSG00000173068:stop:overlap|stop_codon|ENSG00000173068|stop_codon|NA|stop_codon (ssRNA)
RNA: GGGAGUUCUACAGUCCGACGAUCGAAAUCGGCACAGUCAGAACCCUAAUCUCCACAAAAACAUUCCCUUCACUUCAGUAGAUUAGUCUCAGAAUGGACACUACAAAUGCCAGCUCUCACCAGAUGGCCUACGUGUUUGAACUGCAACAGAGGAUUGAGCAUCA
B4: chr8:78602526:78602623:+|3pUTR|ENSG00000171033|msi1_unk|FALSE|overlapping (ssRNA)
RNA: GGGAGUUCUACAGUCCGACGAUCUUGUAUGUUGAUGAGUUGAUUAAGUCUAACAGAUUCAUCAAGACUCCAUUGCUUUAUUAUAGAGACAUUUGAAAAUAUCCAUUAAUGUGAAUAUCACCUGAAUUCAGUCUGUUUGGUGUCCAACAGAGGAUUGAGCAUCA
B5: chr3:138945594:138946722:-|CDS|ENSG00000183770|control|control|control (ssRNA)
RNA: GGGAGUUCUACAGUCCGACGAUCCCCGGCCGCCUCGUACGGGCCGUACACACGCGUGCAGAGCAUGGCGCUGCCCCCCGGCGUAGUGAACUCGUACAAUGGCCUGGGAGGCCCGCCGGCCGCACCCCCGCCUCCGCCGCACCCCAACAGAGGAUUGAGCAUCA
B6: chr16:56943551:56943652:+|3pUTR|ENSG00000051108|msi1|FALSE|unique (ssRNA)
RNA: GGGAGUUCUACAGUCCGACGAUCUGCAUGUCUAUGCUUGAGGAACUUUUCCAAAUGUGUGUGUCUGCAUGUGUGUUUGUACAUAGAAGUCAUAGAUGCAGAAGUGGUUCUGCUGGUACGAUUUGAUUCCUGUUGGAAUGUUUACAACAGAGGAUUGAGCAUCA
B7: chr8:58579689:58579790:+|CDS|ENSG00000137575|msi1|total|mutant (ssRNA)
RNA: GGGAGUUCUACAGUCCGACGAUCAGCACUGGACAUGUUGGUUUUAUCUUUAAAAAUGGAAAAAUAACAUCCACCGUGAAAGACCGCUCUGCAGCCAGAAAUGGUCUUCUCACGGAACAUAACAUCUGUGAAAUCAAUGGACAGCAACAGAGGAUUGAGCAUCA
B8: chr12:6238009:6238110:+|3pUTR|ENSG00000010278|msi1_unk|total|mutant (ssRNA)
RNA: GGGAGUUCUACAGUCCGACGAUCAUAAAAGCUGAAGUUACUUUAUGUUUGUCUUUUAAUGCUUCAUUCAAUAUUGACAUUUGCCGUUGAGCGGGGGGUUUGGUUUGCUUUGGUUUAUAUUUUUUCAGUUGUUUGUUUUUGCUUCAACAGAGGAUUGAGCAUCA
B9: chr14:94062441:94062542:-|CDS|ENSG00000089737|msi1|FALSE|unique (ssRNA)
RNA: GGGAGUUCUACAGUCCGACGAUCCCUCCAAGUAACACCGAAGCACCACCUGGAGAGACCAGAACUGAGGCCGGAGCUGAGACUAGAUCACCAGGCAAGGCUGAAGCUGAGUCUGAUGCAUUGCCUGACGAUACUGUAAUUGAGCAACAGAGGAUUGAGCAUCA
B10: chr7:88283957:88284065:-|CDS|ENSG00000127954|unk|FALSE|unique (ssRNA)
RNA: GGGAGUUCUACAGUCCGACGAUCCAGUGGUGCAGAAGUCUUGAGCUAUUCAGAAGCAGCCAAGAAGUCUGGCAUCAUAAUCAUAGCAAUCCACAGAGAGCAUUAUGAUUUUCUCACAGAAUUAACUGAGGUUCUCAAUGGAAACAACAGAGGAUUGAGCAUCA
B11: chr1:24839915:24840022:+|CDS|ENSG00000169504|unk|FALSE|bound_elsewhere (ssRNA)
RNA: GGGAGUUCUACAGUCCGACGAUCACCCUGCAGAAACUGGAUGAAUAUCUGAAUUCUCCUCUCCCUGAUGAAAUUGAUGAAAAUAGUAUGGAGGACAUAAAGUUUUCUACACGUAAAUUUCUGGAUGGCAAUGAAAUGACAUUACAACAGAGGAUUGAGCAUCA
B12: chr17:82614561:82616025:-|three_prime_utr|ENSG00000141580|control|control|control (ssRNA)
RNA: GGGAGUUCUACAGUCCGACGAUCCUACAAAUUCCUGUUCAACCCCAAGGGGGAGUGCAUCCGAGAUGUCUACGCGCAGUUUCUAGAGAUGACCGAUGACAAGCUGUGACUCCAGCUGGGGGCGCCACAGCACCCACCACCUGCCAACAGAGGAUUGAGCAUCA
B13: chr10:123166816:123166917:+|3pUTR|ENSG00000154473|unk|total|mutant (ssRNA)
RNA: GGGAGUUCUACAGUCCGACGAUCAAAAACUUAAAGGUAUAUCCGCAGGUCCGCCUUUGUUCUGUGGGAGAUCCAGGCCUUGUCCGAAGGACCAAGGCCAGAAUGCCCAGUUCCGCCUCCGCAUUCAAACCCUUCAUUGUUUUUCAACAGAGGAUUGAGCAUCA
B14: chr5:115137525:115137627:-|CDS|ENSG00000152503|unk|total|mutant (ssRNA)
RNA: GGGAGUUCUACAGUCCGACGAUCUUCCGCAGAAGAGGCUAUUCUUUGUUUUAUCUCCGUGUAAUGGAGAUACUGUUUUUUCUCCGUGUAAUGGAGAGAGGGCUAAAGAAGAAGCAAUUACACAUUUUGAAAAGCUCUUUGAAGCAACAGAGGAUUGAGCAUCA
B15: ENSG00000075856:stop:overlap|stop_codon|ENSG00000075856|stop_codon|NA|stop_codon (ssRNA)
RNA: GGGAGUUCUACAGUCCGACGAUCGCAGCGGGCAUCUUCCAGUCUUUCAGGUCCUCGGGUCCCCAUGUCCUGGCCCGCCUCCCUAGUCCUCGGCGGCGAUAAAGCCGCCAAGGCUGCAAACCCGCUUUUCGUGACAGUAGCUCCCAACAGAGGAUUGAGCAUCA
B16: chr12:52170242:52170446:-|3pUTR|ENSG00000167767|msi1|FALSE|unique (ssRNA)
RNA: GGGAGUUCUACAGUCCGACGAUCUGGCCCUCCCCUCCUUGGCAUUCAUGGGGGAGCCCAGGAACCCCCCACACCUAUGGGGUUAGAGCUCCUCCUUUCUUCUCACUCCUUCCCCUUCCUCCCUCCAUGCCCACUCCCCCUGCCCAACAGAGGAUUGAGCAUCA
B17: chr16:3727831:3727932:-|CDS|ENSG00000005339|unk|total|mutant (ssRNA)
RNA: GGGAGUUCUACAGUCCGACGAUCCGUCUCACCCCAGACUGGUUCCCCCCACCCCGGACUCGCAGUCACCAUGGCCAGCUCCACCGAUCAGGGACACUUGGGGAACCCCGAACAGAGUGCAAUGCUCCCCCAGCUGAACACCCCCAACAGAGGAUUGAGCAUCA
B18: ENSG00000107863:be:win_2851|CDS|ENSG00000107863|bound_else_gene|NA|bound_elsewhere_windowed (ssRNA)
RNA: GGGAGUUCUACAGUCCGACGAUCGUUGGUGGAAGUAUUCGGCCAUGGAAACAGAUGUAUGUUGUCCUUCGGGGUCAUUCACUUUACCUGUACAAAGAUAAAAGAGAGCAGACGACUCCGUCUGAGGAAGAGCAGCCCAUCAGUCAACAGAGGAUUGAGCAUCA
B19: ENSG00000107863:be:win_5751|CDS|ENSG00000107863|bound_else_gene|NA|bound_elsewhere_windowed (ssRNA)
RNA: GGGAGUUCUACAGUCCGACGAUCACCUGACCAAAUAAACGGAGAAAGCUUCCAGAACGUGAGCAAAAAUGCUAGUUCUGCAGCGAAUGCCCAACCUCAUAAACUGUCUGAAACCCCAGGCAGUAAAGCAGAGUUUCAUCCCUGCAACAGAGGAUUGAGCAUCA
B20: chr11:123942869:123943838:-|CDS|ENSG00000181499|control|control|control (ssRNA)
RNA: GGGAGUUCUACAGUCCGACGAUCCCGCUAUGAGACCCUGAUGAAUGGCCAUGUCUGUUCCCAACUAGUGCUGGCCUCCUGGCUAGCUGGAUUCCUCUGGGUCCUUUGCCCCACUGUCCUCAUGGCCAGCCUGCCUUUCUGUGGCAACAGAGGAUUGAGCAUCA
B21: chr6:52498635:52498743:-|3pUTR|ENSG00000065308|msi1|total|mutant (ssRNA)
RNA: GGGAGUUCUACAGUCCGACGAUCAAAGGGACACGGAUUGUGACAGUUUCACCCCAUUUGUUUCUAACCCCGCUGCCCAGGAUCCGGGUCUGUGGUGUGUUCUGUUUUGUUUUUGGUUUCUCCCUUGUGUCAGUUCUCUUCUGGCAACAGAGGAUUGAGCAUCA
B22: ENSG00000101574:stop:overlap|stop_codon|ENSG00000101574|stop_codon|NA|stop_codon (ssRNA)
RNA: GGGAGUUCUACAGUCCGACGAUCAUCAAGCCAGAUGGGGAAUAUUUGGAGUUGUUUGCUCGAAAUUUACAGCCAGGUUGGACUAGUUGGGGCAAUGAAGUUCUCAAAUUUCAGCAUGUGGAUUAUUUUAUUGCUGUGGAGUCUCAACAGAGGAUUGAGCAUCA

This is one part of the list.

Among the data in publication PMC12136788 are binding signal values, retold here.

The target of this assay is T1, UNK ZnF1-6 (called full-length) (human, UniProt Q9C0B0 30-357).
T1 sequence: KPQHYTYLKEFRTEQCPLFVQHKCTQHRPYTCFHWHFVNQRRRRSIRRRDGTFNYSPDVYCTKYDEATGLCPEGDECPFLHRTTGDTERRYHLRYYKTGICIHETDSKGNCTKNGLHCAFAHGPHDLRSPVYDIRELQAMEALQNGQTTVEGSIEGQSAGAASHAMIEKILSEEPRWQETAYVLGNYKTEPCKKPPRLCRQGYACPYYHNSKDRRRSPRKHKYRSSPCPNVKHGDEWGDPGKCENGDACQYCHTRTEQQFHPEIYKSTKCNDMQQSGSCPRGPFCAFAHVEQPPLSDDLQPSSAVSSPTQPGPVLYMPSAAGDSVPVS
Description: nsRBNS (natural sequence RNA bind-n-seq); RBNS binding buffer (assumed for nsRBNS): 25 mM Tris pH 7.5, 150 mM KCl, 3 mM MgCl2, 0.01% Triton X-100, 500 ug/ml BSA, 20 U/ml SUPERase-In, 4 C; UNK is unkempt and MSI1 is Musashi-1; names of the RNAs are library labels; protein concentration not given here; high values mean tight binding.
On to B1, for which the binding signal amounted to 0.588 enrichment R. B2 displayed a binding signal of 1.2 enrichment R. For B3, the binding signal was determined as 0.981 enrichment R.

The molecule B4 returned a binding signal of 1.06 enrichment R.

In turn, B5 returned a binding signal of 0.774 enrichment R. Molecule B6 had a binding signal of 0.257 enrichment R. B7 returned a binding signal of 0.566 enrichment R. In turn, B8 showed a binding signal of 1.77 enrichment R. To B9 belongs 0.576 enrichment R. B10 came in with a binding signal of 0.402 enrichment R.

With B11, the binding signal was determined as 0.33 enrichment R. In the case of B12, the binding signal is 0.928 enrichment R. Regarding B13, the binding signal was 0.411 enrichment R. Molecule B14 returned a binding signal of 0.327 enrichment R.

The molecule B15 showed a binding signal of 0.352 enrichment R. As to B16, the binding signal stood at 1.03 enrichment R. Turning to B17, the binding signal turned out to be 0.845 enrichment R. B18: the binding signal was 0.615 enrichment R. In turn, B19 gave a binding signal of 0.358 enrichment R. B20 displayed a binding signal of 0.827 enrichment R. In turn, B21 registered a binding signal of 0.669 enrichment R. On to B22, for which the binding signal is 0.419 enrichment R.
